Laboratory results from PubChem BioAssay AID686970 (National Center for Advancing Translational Sciences (NCATS), 2013).
In all, about 360,000 compounds went through this assay and about 6,000 (1.7%) were called active. The shares of active, inactive and inconclusive entries below differ from those in the screen. Calls come from the whole dose curve; as a rule, active = well fitted cell-killing curve with a large enough effect; inconclusive = small, poorly fitted or top-dose-only effect, or effect the other way; inactive = flat fitted curve, though single readings scatter. No potency is given beside an inconclusive call; the fits are too rough.

test: qHTS for induction of synthetic lethality in tumor cells producing 2HG: qHTS for the HT-1080-NT fibrosarcoma cell line; conditions: HT-1080-NT fibrosarcoma viability, CellTiter-Glo ATP luminescence, 48 h; activity, negative = less viability: at 46.1 µM (top of the series) unless noted;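 note: NT is the 2HG producing partner of a matched IDH1 knockdown line; nearly all actives have a fitted effect of over 55% in size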;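 for activity, negative = less viability: 0% = DMSO-treated cells and -100% = media-only wells without cells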
Procedure, shortened: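 Compounds were tested in concentration-response format on HT-1080-NT cells for 48 hours at 37 degrees C. Cell viability came from CellTiter-Glo luminescence; curves were classified by r2, response magnitude and activity.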
Potency is the fitted concentration of half-maximal effect; tags give direction and shape of the fitted curve.

Structure (SMILES)	Potency	activity, negative = less viability
CC1=Nc2cc(C(=O)NCCCOC(C)C)ccc2Sc2ccccc21	inconclusive [cytotoxic, single point]	
COc1ccc(C(=O)NCC(=O)OCCOc2ccc(Cl)cc2)cc1OC	inactive	
O=C(O)CCCCn1c(SCC(=O)Nc2ccccc2C(F)(F)F)nc2ccsc2c1=O	inactive	
CN(C)CC/C=C1/c2ccccc2Sc2c(O)cc(Cl)cc21	inconclusive [cytotoxic, single point]	
C/C(=N/NC(=O)c1cccc(C)c1)c1c(O)cc(C)oc1=O	inactive	
NC1=NC(=O)/C(=C/c2cn(Cc3ccccc3)c3ccccc23)S1		inconclusive: -35.1% [cytotoxic]
COc1ccc2nc(NCc3ccccc3)[nH]c2c1	inconclusive [cytotoxic, single point]	
Cc1cc2c(cc1C)C(c1cccc([N+](=O)[O-])c1)CC(=O)N2 (stereo not drawn)	inconclusive [cytotoxic, single point]	
CC(=O)N1CCN(c2ccc(NC(=O)c3ccccc3C)cc2)CC1	inactive	
COc1ccc(NC(=O)COc2cccc(-n3cnnn3)c2)cc1Cl	inconclusive [rising, partial curve, poor fit]	
OC(CN=c1sc2ccccc2n1CC(O)COc1ccccc1)COc1ccccc1 (stereo not drawn)	inconclusive [cytotoxic, single point]	
O=C(NNc1ccccc1F)c1sccc1Cl	inconclusive [cytotoxic, partial curve]	
Cc1cc(C)n2nc(C(=O)OCC(=O)N(CC(C)C)C3CCS(=O)(=O)C3)nc2n1 (stereo not drawn)	inactive	
Cn1cc(/C=N/n2cnc3scc(-c4ccc(Cl)cc4)c3c2=O)c2ccccc21	inconclusive [cytotoxic, full curve]	
Cc1cc(SCNC(=O)c2ccccc2)ncn1	inconclusive [cytotoxic, partial curve]	
CCn1ncc(NC(=S)NCCc2ccc(OC)c(OC)c2)c1C(N)=O	inactive	
COc1cc(/C=C2\CC/C(=C\c3cc(OC)c(O)c(OC)c3)C2=O)cc(OC)c1O	active: 4.11 µM	
Cc1cc(O)cc(O[C@H]2OC(CO)[C@H](O)[C@@H](O)[C@H]2O)c1 (stereo partly drawn)	inconclusive [rising, single point]	
CCOc1ccc(CN2CCN(C(=O)c3cccc4ccccc34)CC2)cc1	inconclusive [cytotoxic, single point]	
COc1cc(OC)cc(-c2c(C#Cc3ccsc3)c3cc(-c4ccc5cc[nH]c5c4)ccc3n2C)c1	inactive	
C#CCOC(=O)c1ccccc1C(=O)n1nnc2ccccc21	inconclusive [cytotoxic, single point]	
CCCCNc1c(-c2ccc(OC)c(SC3CCCCC3)c2)nc2cc(C)ccn12	active: 18.4 µM	
COc1ccc(C(=O)CCN2CCN(c3ccccc3OC)CC2)cc1	inconclusive [cytotoxic, single point]	
C#CCNC(=O)C[C@@H]1C[C@@]2(C(=O)OC)CC(C)(C)CC=C2N(CCCCCCCC)C1=O	inconclusive [cytotoxic, single point]	
CC(C)CN(C(=O)COC(=O)CCC(=O)c1ccc(F)cc1)c1c(N)n(Cc2ccccc2)c(=O)[nH]c1=O	inactive	

Structure (SMILES)	Potency	activity, negative = less viability
CCCCCN(C(=O)CCC(=O)OCc1ccccc1F)c1c(N)n(CCCC)c(=O)[nH]c1=O	inactive	
Cc1cccc(Nc2nnc(SCC(=O)c3ccc(Br)s3)s2)c1C	inconclusive [cytotoxic, single point]	
O=[N+]([O-])c1ccccc1C=NNC(=S)NN=Cc1ccccc1[N+](=O)[O-]	inconclusive [cytotoxic, partial curve]	
CC(C)(C)n1nnnc1C(c1cc2ccccc2o1)N(CCC#N)Cc1ccccc1 (stereo not drawn)	inactive	
Cc1cccc(N/N=C/c2ccncc2)c1	inconclusive [cytotoxic, partial curve]	
O=C1/C(=C\c2ccc(O)c(O)c2)C(c2ccccc2)=NN1c1ccccc1	inactive	
CN(Cc1ccc(Cl)cc1)C(=O)c1ccccc1SCC(=O)N1CCCC1	inactive	
CC(=O)Nc1ccc(NC(=O)C(C)OC(=O)c2ccccc2C(=O)c2ccc(Cl)c([N+](=O)[O-])c2)cc1 (stereo not drawn)	inconclusive [cytotoxic, single point]	
COc1ccc(-c2c(-c3ccc(OC)c(C)c3O)n[nH]c2C)cc1	inconclusive [cytotoxic, single point]	
CCc1nnc(NC(=O)c2ccc(COc3ccccc3)o2)s1	inconclusive [cytotoxic, full curve]	
CCNC(=S)Nc1ccc(Cl)cc1Cl	inactive	
Cc1ccc(Nc2nc(N)nc(CN3CCN(Cc4ccc5c(c4)OCO5)CC3)n2)cc1Cl		inconclusive: -31.9% [cytotoxic]
O=C(/C=C/c1ccc(O)c(O)c1)O[C@@H]1C[C@](O)(C(=O)O)C[C@@H](O)[C@H]1O	inconclusive [rising, single point]	
CCC(c1nnnn1C(C)(C)CC)N(CCCO)Cc1cc2cc(C)cc(C)c2[nH]c1=O (stereo not drawn)	inactive	
COc1cccc(C(=O)Nc2nnc(Cc3ccc(OC)c(OC)c3)s2)c1	inconclusive [rising, single point]	
O=C(CSc1nnc(-c2cc3ccccc3cc2O)n1Cc1ccco1)N1CCc2ccccc2C1	inconclusive [cytotoxic, single point]	
O=C1CN(C(=O)c2cccc(Br)c2)c2ccccc2N1	active: 14.6 µM	
Cc1ccc(N(CC(=O)NCCSc2ccccn2)S(=O)(=O)c2ccc(F)cc2)cc1	inactive	
O=c1oc2ccccc2cc1-c1cn(-c2ccccc2)c(=S)[nH]1		inconclusive: -7.28% [cytotoxic]
N#CC1=C2SCC(O)(c3ccccc3)N2C(=O)CC1c1ccccc1F (stereo not drawn)	inconclusive [cytotoxic, partial curve]	
COCCN(C(=O)C(C)C)c1nnc(-c2ccc(C(C)(C)C)cc2)s1	inconclusive [cytotoxic, single point]	
CC(C)(C)C(=O)N/C(N)=N/c1nc2ccccc2o1	inconclusive [cytotoxic, single point]	
CCC(=O)Nc1cccc2ccccc12	inactive	
CCc1nc2ccc(C(=O)Nc3cccc(NS(C)(=O)=O)c3)cn2c1N(C)CCCc1ccccc1	inconclusive [cytotoxic, single point]	
CC(C)n1cnc2c(N(C)c3ccccc3)nc(N(CCN(C)C)Cc3ccccc3)nc21	inconclusive [cytotoxic, single point]	

Structure (SMILES)	Potency	activity, negative = less viability
OCCNCC(O)CN1c2ccccc2Sc2ccccc21 (stereo not drawn)	inconclusive [cytotoxic, single point]	
CCc1nc2c(OCc3ccc(C(F)(F)F)cc3)cccn2c1N(C)C(=O)CC(C)C	inconclusive [cytotoxic, partial curve]	
Cc1ccsc1/C=C/C1=Cc2c(sc(NC(=O)CSc3n[nH]c(N)n3)c2C#N)C(C)(C)C1	active: 22.4 µM	
COc1ccc2c(C)cc(=O)oc2c1C	inactive	
CCCS(=O)(=O)NC(=O)C1(C)CCCN(C(=O)c2cccc(Cl)c2)C1 (stereo not drawn)	inconclusive [rising, single point]	
Cc1ccc(C)c(C(=O)CN2C(=O)c3ccccc3S2(=O)=O)c1	inactive	
Cn1c(NCCCN2CCOCC2)nc2c1c(=O)n(Cc1ccc(Cl)c(Cl)c1)c(=O)n2C	inconclusive [cytotoxic, single point]	
O=C(c1cc(COc2ccc3ncccc3c2)on1)N1CCCC1	active: 20.6 µM	
O=C(c1ccc(Br)cc1)N(Cc1nc2ccccc2c(=O)[nH]1)C1CCCC1	inconclusive [cytotoxic, partial curve]	
C/C(CC(=O)Nc1ccc(Cl)cc1Cl)=N\NC(N)=S	active: 10 µM	
COc1cccc2cc(C(=O)OCc3ccccc3)c(=O)oc12	inactive	
O=C(NCCN1CCN(Cc2ccccc2)CC1)c1cc2c(=O)[nH]c3ccccc3c2s1	inconclusive [cytotoxic, single point]	
COc1ccc([N+](=O)[O-])cc1C1NN=C(c2ccccc2O)S1 (stereo not drawn)	inconclusive [cytotoxic, single point]	
C/C(Cl)=C\Cn1c(O)c(N=NC(N)=S)c2cc(Br)ccc21	inconclusive [cytotoxic, single point]	
COc1ccc(C(CNC(=O)c2cccc(NS(=O)(=O)c3ccccc3)c2)N(C)C)cc1 (stereo not drawn)	inactive	
COc1ccccc1N(C)c1cc2c(c3c1ccn3C)C1CCC2O1 (stereo not drawn)	active: 23.1 µM	
CCSc1nsc(NC(=O)Nc2cccc(F)c2)n1	active: 11.6 µM	
CCC(C)c1ccc(C(CC)NC(=O)C2CCCO2)cc1 (stereo not drawn)	inconclusive [cytotoxic, single point]	
COc1ccc(C(=O)N2C(=O)c3ccc(N)cc3C2=O)cc1		inconclusive: 31.8%
COc1ccc(/C=N\NC(=O)c2ccccc2F)cc1COc1ccc(F)cc1	inactive	
Cc1ccc(NC(=O)CSc2nc3ccccc3c3nc4ccccc4n23)cc1	active: 0.398 µM	
Cc1nc(-c2cc(-c3ccc(Cl)cc3)no2)cs1	inconclusive [rising, partial curve]	
CCCCCCn1c(=O)n2n(c1=O)C[C@]1(OC(=O)NCc3ccccc3)CN(S(=O)(=O)c3ccc(C)cc3)C[C@]1(O)C2	inactive	
